The values that follow come from the antibiotic and cytotoxicity screens of Wong et al. (2023).

The list shows a part of the results.

The test system of the experiment is S. aureus RN4220. The experiment is described as follows: growth inhibition call (relative growth <= 0.2). The conditions noted are these: 50 µM.
In the case of `Cc1ccc(S(=O)(=O)Nc2ccc3c(c2)C(=O)N([C@H](C)CO)C[C@H](C)[C@@H](CN(C)Cc2ccc(C(F)(F)F)cc2)OCCCC[C@H](C)O3)cc1`, the growth inhibition call was “inactive”.

For `COCC(=O)N(C)C[C@H]1Oc2cc(C#CC(C)(C)O)ccc2S(=O)(=O)N([C@H](C)CO)C[C@H]1C`, the growth inhibition call is “inactive”.

With `Cc1ccc(S(=O)(=O)Nc2ccc3c(c2)C(=O)N([C@@H](C)CO)C[C@@H](C)[C@H](CN(C)CC2CCCCC2)OCCCC[C@H](C)O3)cc1`, the growth inhibition call was “inactive”.

With `CCCN(C)C[C@@H]1OCCCC[C@@H](C)Oc2ccc(NC(=O)Nc3ccc(C(F)(F)F)cc3)cc2C(=O)N([C@H](C)CO)C[C@@H]1C`, the growth inhibition call was “inactive”.

As to `C[C@H](CO)N1C[C@H](C)[C@@H](CN(C)C(=O)Nc2ccc3c(c2)OCO3)Oc2ccc(NC(=O)C3CC3)cc2C1=O`, the growth inhibition call was “inactive”.

Turning to `COc1ccc2c3c([nH]c2c1)[C@@H](CO)N(C[C@]13CCN(CC1)Cc1ccccc1OC)C(=O)Nc1ccc(cc1)F`, the growth inhibition call was “inactive”.

With `C[C@H](CO)N1C[C@H](C)[C@@H](CN(C)Cc2ccc(O)cc2)OCc2ccccc2-c2c(n(C)c3ccccc23)C1=O`, the growth inhibition call is “inactive”.
